# Data reported in patent publication US20170233449A1 (Teva, published 2017).
# Target: PD-1 on activated human CD4 T cells (human, UniProt Q15116 25-288)
# Assay: cell-based or functional assay
# UniProt Q15116, sequence (Q15116 25-288 limits assumed): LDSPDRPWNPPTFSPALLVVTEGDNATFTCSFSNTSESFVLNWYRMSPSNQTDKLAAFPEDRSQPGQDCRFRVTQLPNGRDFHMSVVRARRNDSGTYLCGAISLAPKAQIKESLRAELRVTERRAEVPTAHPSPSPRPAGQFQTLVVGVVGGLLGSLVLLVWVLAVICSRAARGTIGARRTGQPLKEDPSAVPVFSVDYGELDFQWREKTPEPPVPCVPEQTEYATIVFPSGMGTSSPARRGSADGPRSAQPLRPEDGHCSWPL
row,Binder,EC50 On Target (pM) Th1 Diversion [pM]
1,J110-HC-L6-IL4 IgG1 (other) heavy: DVQLQESGPGLVKPSQSLSLTCTVTGHSITSDYAWNWIRQFPGDKLEWMGYISYSGYTTYNPSLKSRVSITRDTSKNQFFLQLNSVTTEDTATYFCARDLDYGPWFAYWGQGTLVTVSA[in this place human IgG1 constant region]SGGGGSHKCDITLQEIIKTLNSLTEQKTLCTELTVTDIFAASKNTTEKETFCRAATVLRQFYSHHEKDTRCLGATAQQFHRHKQLIRFLKRLDRNLWGLAGLNSCPVKEANQSTLENFLERLKTIMREKYSKCSS light: DIQMTQSPASLSASVGETVTLTCRASENIHNYLAWYQQKQGKSPQLLVYNVKTLADGVPSRFSGSGSGTQYSLKINSLQPEDFGSYYCQHFWSSPWTFGGGTKVEIKRTVAAPSVFIFPPSDEQLKSGTASVVCLLNNFYPREAKVQWKVDNALQSGNSQESVTEQDSKDSTYSLSSTLTLSKADYEKHKVYACEVTHQGLSSPVTKSFNRGEC,31.8
2,J110-HC-L6-IL-4 (R88Q) IgG1 (other) heavy: DVQLQESGPGLVKPSQSLSLTCTVTGHSITSDYAWNWIRQFPGDKLEWMGYISYSGYTTYNPSLKSRVSITRDTSKNQFFLQLNSVTTEDTATYFCARDLDYGPWFAYWGQGTLVTVSA[in this place human IgG1 constant region]SGGGGSHKCDITLQEIIKTLNSLTEQKTLCTELTVTDIFAASKNTTEKETFCRAATVLRQFYSHHEKDTRCLGATAQQFHRHKQLIRFLKRLDQNLWGLAGLNSCPVKEANQSTLENFLERLKTIMREKYSKCSS light: DIQMTQSPASLSASVGETVTLTCRASENIHNYLAWYQQKQGKSPQLLVYNVKTLADGVPSRFSGSGSGTQYSLKINSLQPEDFGSYYCQHFWSSPWTFGGGTKVEIKRTVAAPSVFIFPPSDEQLKSGTASVVCLLNNFYPREAKVQWKVDNALQSGNSQESVTEQDSKDSTYSLSSTLTLSKADYEKHKVYACEVTHQGLSSPVTKSFNRGEC,46.1
